Assay results as given in paper PMC4336329 (PLoS ONE, 2015).
The whole screen tested about 310,000 compounds, of which about 2,200 (0.71%) showed an effect of 50% or more. The effect is printed as a negative number. The list shows a part of the results.

Biological target: human ether-à-go-go-related gene (hERG) potassium channel (human, UniProt Q12809)
Experiment: primary screen, population patch clamp on CHO cells stably expressing hERG

Chain of human ether-à-go-go-related gene (hERG) potassium channel (Q12809 whole entry, looked up): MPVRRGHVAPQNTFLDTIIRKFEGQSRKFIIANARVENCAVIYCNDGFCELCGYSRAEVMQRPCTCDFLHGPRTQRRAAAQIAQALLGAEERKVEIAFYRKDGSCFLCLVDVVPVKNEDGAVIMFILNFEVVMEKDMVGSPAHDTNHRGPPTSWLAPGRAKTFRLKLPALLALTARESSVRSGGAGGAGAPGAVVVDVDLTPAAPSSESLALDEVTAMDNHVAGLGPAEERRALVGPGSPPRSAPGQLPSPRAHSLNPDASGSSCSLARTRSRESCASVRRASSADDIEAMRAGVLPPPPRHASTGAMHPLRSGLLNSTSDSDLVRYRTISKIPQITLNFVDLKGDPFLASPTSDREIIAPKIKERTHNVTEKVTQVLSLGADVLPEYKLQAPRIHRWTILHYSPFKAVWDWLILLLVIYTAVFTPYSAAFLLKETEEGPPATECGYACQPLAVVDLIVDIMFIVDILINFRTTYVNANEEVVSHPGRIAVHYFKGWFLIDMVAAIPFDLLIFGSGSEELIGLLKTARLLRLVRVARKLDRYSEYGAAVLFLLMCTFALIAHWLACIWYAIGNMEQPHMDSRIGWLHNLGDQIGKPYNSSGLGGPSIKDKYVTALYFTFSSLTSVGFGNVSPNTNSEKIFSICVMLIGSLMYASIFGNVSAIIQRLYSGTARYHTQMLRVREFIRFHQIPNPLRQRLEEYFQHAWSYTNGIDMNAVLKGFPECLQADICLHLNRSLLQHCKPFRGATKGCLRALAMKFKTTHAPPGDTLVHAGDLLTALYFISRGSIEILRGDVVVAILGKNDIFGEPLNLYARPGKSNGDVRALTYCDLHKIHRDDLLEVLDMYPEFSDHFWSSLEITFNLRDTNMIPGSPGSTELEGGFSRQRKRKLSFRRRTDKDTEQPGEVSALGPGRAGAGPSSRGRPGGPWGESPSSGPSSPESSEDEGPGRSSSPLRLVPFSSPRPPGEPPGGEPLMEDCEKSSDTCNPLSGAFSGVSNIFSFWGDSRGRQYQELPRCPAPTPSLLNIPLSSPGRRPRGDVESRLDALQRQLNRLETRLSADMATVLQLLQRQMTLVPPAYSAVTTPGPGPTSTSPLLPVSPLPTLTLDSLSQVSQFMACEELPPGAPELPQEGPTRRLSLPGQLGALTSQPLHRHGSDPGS

Row | SMILES | hERG current change (%, negative = inhibition) at 1uM [%]
1 | CC(=O)Nc1cccc2c1C(=O)NC2=O | 7.84
2 | COc1ccc(N(CC(=O)Nc2ccc3c(c2)OCO3)S(=O)(=O)c2ccc(F)cc2)cc1 | 16.6
3 | CC(=O)c1ccc(S(=O)(=O)Nc2cc3c(cc2C(C)=O)OCO3)cc1 | 21.7
4 | O=c1cc(-c2cccc(Cl)c2)oc2cccc(O)c12 | 4.53
5 | CC#CCN1c2ccccc2[C@]23C[C@@H](C(=O)OC)N=C2NC(C(=O)OC)=C(C(=O)OC)[C@H]13 | 5.41
6 | Cc1cccc(N=Nc2cn[nH]c2-c2ccco2)c1 | 7.83
7 | CCN1CCN(c2ncnc3c2cnn3-c2ccc(C)cc2C)CC1 | 5.51
8 | CCOCc1nnc(NC(=O)c2c(OC)cccc2OC)s1 | 16.4
9 | Fc1ccc(CCNC(=S)Nc2ccc(F)cc2)cc1 | 6.26
10 | C/C(=N/NC(=O)c1cccs1)c1cccc(NC(=O)C2CC2)c1 | 8.65
11 | Cc1ccc(C(=O)CCC(=O)Nc2cccnc2)cc1C | 14.3
12 | CCC(=O)N1CCCc2cc(S(=O)(=O)N3CCN(c4ccccn4)CC3)ccc21 | 0.367
13 | O=C(NCc1ccco1)c1cc(-c2ccccc2)on1 | 10.7
14 | O=C(CCC(=O)c1ccc(Cl)cc1)NCc1ccccc1 | 47.3
15 | S=C(NCc1ccccc1)NCc1cccc(Cl)c1 | 12.3
16 | CN(C)C(=O)CSc1nnc(CCNC(=O)OC(C)(C)C)o1 | -7.2
17 | O=C(O)c1cccc(S(=O)(=O)N2CCCC(c3nc4c(nnn4Cc4ccccc4Cl)c(=O)[nH]3)C2)c1 (centres unmarked) | 13.3
18 | Cc1ccc(S(=O)(=O)N(Cc2cccc(Cl)c2)C(=O)N2CCN(C)CC2)cc1 | 9.89
19 | Brc1cccc(OCCN2CCOCC2)c1.O=C(O)C(=O)O | 15.4
20 | Cc1cccc(C2c3[nH]c4ccccc4c3CCN2C(=O)c2cc(CC(C)C)[nH]c(=O)n2)n1 (centres unmarked) | 1.82
21 | O=C(c1ccc(Cl)c(S(=O)(=O)NCc2ccco2)c1)N1CCN(c2ccc(F)cc2)CC1 | -14
22 | Nc1c(Cl)c(Cl)nc(C(=O)OCC(=O)N2CCCC2=O)c1Cl | 4.38

Row | SMILES | hERG current change (%, negative = inhibition) at 1uM [%]
23 | COc1ccc(C2CC(=O)c3c(ccc4ccccc34)N2)cc1OC (centres unmarked) | 2.1
24 | COc1ccc(CNC(=O)C(C#N)c2nc3ccccc3nc2N2CCCC2)cc1 (centres unmarked) | 10.5
25 | CCc1nnc(NC(=O)C(NC(=O)c2ccccc2Cl)C(C)C)s1 (centres unmarked) | 8.17
26 | COC(=O)CN1C(=O)[C@H]2[C@@H](C3CC3)N3C(=O)CN(Cc4ccccn4)C(=O)[C@@]3(Cc3ccccc3)[C@H]2C1=O | 3.1
27 | Cc1ccc(C)c(N2CCN(C(=O)C34CC5CC(C3)CC(n3nnc(C)n3)(C5)C4)CC2)c1 | 3.18
28 | Cc1cc(C)cc(NC(=O)Cn2nnc(C(=O)NCc3ccccc3Cl)c2N)c1 | 13.6
29 | CCOC(=O)c1sc2nc3c(SCC(=O)O)cc(C(=O)c4cc(F)ccc4O)cn3c(=O)c2c1C | 8.65
30 | CC(C)(C)Nc1nc(Oc2ccc(=O)n(-c3ccccc3)n2)nc(N2CCOCC2)n1 | -8.49
31 | CCCn1c(SCC(=O)Nc2nc3c(s2)CCCC3)nc2c1c(=O)n(C)c(=O)n2C | 0.843
32 | COCCNCCOc1ccc(C)cc1[N+](=O)[O-].O=C(O)C(=O)O | -8.77
33 | CCCCn1c(N)c(N(CCOC)C(=O)COC(=O)C(C)(C)Oc2ccc(Cl)cc2)c(=O)[nH]c1=O | 4.64
34 | O=C(CNS(=O)(=O)N1CCOCC1)N/N=C/c1cccnc1 | 8.17
35 | CCN(CC)C(=O)c1ccc(NS(=O)(=O)c2ccc(/C=C/C(=O)O)cc2)cc1 | 12.9
36 | C[N+]1(C)C2CC(OC(=O)C(CO)c3ccccc3)CC1C1OC12.[Br-] (centres unmarked) | 9.8
37 | Cc1noc(C)c1CSCC(=O)N1CCN(c2ccc(F)cc2)CC1 | -17.9
38 | O=C(Nc1ccccc1)c1ccccc1N=Cc1ccccc1O | 13.4
39 | Cc1nn(C)c(C)c1S(=O)(=O)N(CC(=O)NCCCOC(C)C)c1ccc(C(C)C)cc1 | -41
40 | C=C(C)CCC(C)N1CCC(n2nccc2NC(=O)CCCc2ccccc2)CC1 (centres unmarked) | -16.2
41 | Cc1ccc(-c2noc(=O)n2CC(=O)Nc2ccc(S(=O)(=O)NC3CC3)cc2)cc1 | 10.4
42 | CCOC(=O)N1CCN(C(=S)Nc2cc(OC)c(OC)cc2C(=O)OC)CC1 | 12.3
43 | COc1ccc(/C=C/C(=O)NCC(=O)N=Nc2c(O)[nH]c3ccc([N+](=O)[O-])cc23)cc1 | 14.4
44 | Cc1csc(NC(=O)C2C3C=CC(O3)C2C(=O)O)n1 (centres unmarked) | 14.6

Row | SMILES | hERG current change (%, negative = inhibition) at 1uM [%]
45 | CCn1cc(CN2CCC(C(=O)Nc3cccc(-c4cccc(OC)c4)c3)CC2)cn1 | -24.5
46 | CN(C)c1ccnc2sc(C(=O)c3ccc(Br)cc3)c(N)c12 | 9.2
47 | COC(=O)[C@]1(Cc2ccccc2)N[C@H](c2ccc(-c3ccc(OC)cc3)cc2)[C@@H]2C(=O)N(C)C(=O)[C@@H]21.O=C(O)C(F)(F)F | 10.6
48 | c1ccc2sc(-c3ccncc3)nc2c1 | 7.3
49 | O=C1c2ccccc2S(=O)(=O)c2cc(C(=O)N3CCN(c4ccccc4)CC3)ccc21 | -8.29
50 | COc1ccccc1Nc1cc(C(=O)NCCCN2CCOCC2)c2ccccc2n1 | -8.86
51 | O=C(CSC(=S)N1CCOCC1)N1N=CCC1c1ccccc1 (centres unmarked) | 2.29
52 | CC(C)NC(=O)C1CCCN(S(C)(=O)=O)C1 (centres unmarked) | 11
53 | O=C1COc2ccc(S(=O)(=O)CCC(=O)N3CCN(c4cccc(C(F)(F)F)c4)CC3)cc2N1 | -3.52
54 | O=[N+]([O-])c1ccc(NCc2ccccc2N2CCC(CO)CC2)nc1 | -3.9
55 | COc1cc(NC(=S)NCCCN2CCOCC2)cc(OC)c1 | 7.99
56 | CCOC(=O)/C(C#N)=C1\CC2CCC1(C)C2(C)C (centres unmarked) | 7.45
57 | N#CCn1c(C2CCCCC2)nc2ccccc2c1=O | 9.26
58 | Cc1nc2ccc(S(=O)(=O)N(C)CC(=O)Nc3ccccc3F)cc2s1 | 0.133
59 | COc1ccc2cc1Oc1ccc(cc1)CC1c3c(cc(OC)c4c3Oc3cc5c(cc3O4)CCNC5C2)CCN1C (centres unmarked) | 5.98
60 | Cn1c(SCC(=O)NCCc2ccccc2)ncc(C(=O)Nc2ccccc2)c1=O | 13.6
61 | O=c1[nH][nH]c(=O)n1-c1ccccc1 | 2.13
62 | O=C(Nc1ccc(Oc2ccsc2C(=O)O)cc1)c1ccccc1F | 13
63 | COc1ccc(N2CCN(S(=O)(=O)c3cccc4nsnc34)CC2)cc1 | 11.4
64 | COc1cccc(/C=C2\SC(N3CCC(C)CC3)=NC2=O)c1OC | 9.62
65 | CC(C)(CO)C(O)C(=O)NCCCO (centres unmarked) | 13.3
66 | O=C(NCc1ccc(F)cc1)c1ccc(CS(=O)(=O)c2ccc(Br)cc2)o1 | 4.83

Row | SMILES | hERG current change (%, negative = inhibition) at 1uM [%]
67 | CCn1c(COc2ccc(Cl)cc2)nnc1SCC(=O)Nc1ccc2c(c1)OCO2 | 9.66
68 | Nc1c(N2CCCC2)cc(Cl)c2nonc12 | -4.6
69 | N#Cc1cc2c(nc1SCC(=O)Nc1nccs1)CCCCC2 | 3.89
70 | CCOC(=O)c1sc(NC(=O)CSc2n[nH]c(-c3ccc(Cl)cc3Cl)n2)c(C#N)c1C | 14.5
71 | CCOc1ccc(N(CC(=O)Nc2ccc(C)c(C)c2)S(=O)(=O)c2c(C)noc2C)cc1 | 2.97
72 | N=c1c(C(=O)NCc2ccc(F)cc2)cc2c(=O)n3ccccc3nc2n1Cc1cccnc1 | -80.3
73 | CC1(C)Cc2nc3sc4c(SCC(=O)O)ncnc4c3cc2CO1 | 11.5
74 | O=C(NCCCN1CCN(CCCNC(=O)c2cccc(Cl)c2)CC1)c1cccc(Cl)c1 | -74.5
75 | O=C(c1ccc(NS(=O)(=O)c2ccc(F)cc2)cc1)N1CCOCC1 | 19.3
76 | CC1CCCC(NC(=O)CSc2nncs2)C1C (centres unmarked) | 2.31
77 | N#C/C(=C\c1ccc([N+](=O)[O-])o1)C(=O)Nc1ccc(F)cc1 | 4.1
78 | CCN(CC(=O)NCc1cccs1)C(=O)CCc1c[nH]c2ccccc12 | 5.61
79 | CC1CCCCC1NC1CCN(C)CC1 (centres unmarked) | 19.6
80 | Cn1c(=O)cc(OCC(=O)Nc2ccccn2)c2ccccc21 | 16.5
81 | CC(C)n1nc(C(=O)Oc2cc(Cl)ccc2Cl)c2ccccc2c1=O | 10.1
82 | O=C(c1ccc2ccccc2c1)N1CCN(c2ccccn2)CC1 | 8.35
83 | CNC(=S)Nc1ccc([N+](=O)[O-])c(C)c1 | 4.25
84 | Cl.O=C(Nc1ccc(C(=O)OC[C@@H]2CCCN3CCCC[C@H]23)cc1)c1cccc(Br)c1 | -29.2
85 | CCCNC(=O)COC(=O)c1ccc(S(=O)(=O)N2CCCCCC2)cc1 | 6.01
86 | COC(=O)C1=C(C)NC(=O)NC1c1ccc(OCC(=O)N2CCCCC2)cc1 (centres unmarked) | 15
